Test results as given in the supplement of paper PMC4166925.
± gives the standard deviation of the averaged measurements. Over roughly 33,000 sequences, “E-score (dimensionless, -0.5 to 0.5)” has its median near -0.049; the highest 2% begin near 0.37. This is one part of the list.

test system: T1, PmTbr T-box DNA-binding domain (GST fusion); experiment: PBM E-score of 8-mer (E-score (dimensionless, -0.5 to 0.5)); Tbr is Tbrain of the sea star Patiria miniata (Pm) or the sea urchin Strongylocentrotus purpuratus (Sp); higher = stronger binding preference; most listed sequences are background and not binding sites; conditions: the construct has about 5 more residues each side
T1 sequence: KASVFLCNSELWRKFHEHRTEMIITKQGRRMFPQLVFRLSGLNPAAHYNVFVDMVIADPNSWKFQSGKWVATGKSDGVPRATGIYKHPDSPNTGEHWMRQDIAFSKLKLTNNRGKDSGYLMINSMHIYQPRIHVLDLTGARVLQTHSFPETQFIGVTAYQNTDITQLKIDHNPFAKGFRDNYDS
Method in brief: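 GST-fused Tbr T-box DNA-binding domains (the whole T-box plus about five flanking residues) were expressed in BL21 E. coli at 20 °C and purified by glutathione affinity chromatography. Universal Agilent oligonucleotide arrays were made double-stranded by primer extension, incubated with 200 nM protein in PBS (pH 7.5), then scanned and quantified. Every ungapped 8-mer was scored from probe intensities. The Universal PBM Analysis Suite gave each word an enrichment E-score, averaged over duplicate arrays.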

Sequence	PBM E-score of 8-mer
ACCCTTAA	0.0468 ± 0.047
CTAAGAAA	-0.0612 ± 0.07
TCGGGCCA	-0.0825 ± 0.075
CCAACCAC	0.186 ± 0.012
AACTCACA	0.2616 ± 0.00053
ACTCTTTG	0.2084 ± 0.001
AGCGTTTG	-0.0913 ± 0.031
GGGCGGGA	0.00096 ± 0.04
CGGAGTGC	-0.00886 ± 0.079
ACAGGGGT	0.0127 ± 0.07
AGCAGCAA	-0.118 ± 0.011
AGGATCGC	0.0986 ± 0.03
CGAGTACA	-0.0995 ± 0.015
GCAGGCAC	0.151 ± 0.039
ACGACCGT	-0.135 ± 0.029
ACCAACAC	0.296 ± 0.0053
CCGTCCAA	-0.0834 ± 0.018
ATGAACTA	-0.0123 ± 0.0091
GATGGTGC	0.0957 ± 0.011
CCCAGCCA	-0.0582 ± 0.053
ATGTCTAG	0.0887 ± 0.049
CCTCGGTA	0.0791 ± 0.018
ATACGTGA	0.152 ± 0.018
ACCTATGC	0.157 ± 0.04
CGCGTTAG	0.281 ± 0.0036

Sequence	PBM E-score of 8-mer
ACGTCTTC	-0.0061 ± 0.017
ACCCCAGC	-0.039 ± 0.017
ATTACGAA	-0.246 ± 0.011
CCCGACAG	0.11 ± 0.0062
ACGCAAAC	-0.0532 ± 0.082
TATTTTAA	-0.0636 ± 0.061
CCCATCAG	-0.276 ± 0.13
CGGCATAG	-0.0136 ± 0.017
CCCGTTAG	0.0969 ± 0.068
AGGCCGGC	-0.0825 ± 0.025
ATATGAAT	-0.0233 ± 0.082
TCTCAAGA	-0.0673 ± 0.063
CCGCGCCC	0.0469 ± 0.032
AAGAGTAC	-0.296 ± 0.044
AATAGAGC	-0.285 ± 0.057
GGCCCGGA	-0.154 ± 0.031
CGTATGGC	-0.0505 ± 0.0075
GTCTTGGA	-0.225 ± 0.037
CGAGGTCA	0.0395 ± 0.11
GCTCCCGA	-0.153 ± 0.05
CAAAATCA	0.0972 ± 0.034
ATAGTACA	-0.168 ± 0.022
CGGTGTAG	0.134 ± 0.1
ACTTGCGC	0.183 ± 0.062
AGCTGCGC	0.0103 ± 0.024

Sequence	PBM E-score of 8-mer
TAAATCTA	0.0196 ± 0.078
AGGGAAGG	-0.246 ± 0.044
CCATTCTC	0.0677 ± 0.027
AAGCATCA	-0.0588 ± 0.0098
ACCACTTC	0.116 ± 0.0091
AACGCAAT	0.162 ± 0.0089
CTGGATTA	-0.197 ± 0.073
TCGCTGCA	-0.0922 ± 0.023
TTACACAA	0.0808 ± 0.0097
CTGTAGAC	-0.173 ± 0.021
CGCGCGCG	0.186 ± 0.03
ATACTCGA	-0.083 ± 0.053
GAGCGCGA	0.291 ± 0.019
CACGGAAG	0.0863 ± 0.026
AACGTAGC	-0.026 ± 0.0019
ATGACTTA	0.0404 ± 0.052
GCTGCTCC	-0.082 ± 0.025
CGCTGTAC	-0.173 ± 0.0051
CGCCGTCA	0.21 ± 0.09
ACCCTTCT	-0.0405 ± 0.011
TCCGCTAA	0.173 ± 0.014
ACATGGGC	-0.183 ± 0.03
TAGGCAGA	-0.221 ± 0.05
GCTGGGCA	-0.196 ± 0.07
AGCGTGAA	0.381 ± 0.004

Sequence	PBM E-score of 8-mer
AGGTCCTC	-0.263 ± 0.025
GAGTGATC	-0.212 ± 0.036
ATTTACGA	-0.0186 ± 0.17
ATCTGACC	-0.268 ± 0.0054
AAGACCGC	0.0811 ± 0.038
ACCAACTA	-0.0247 ± 0.12
TCCGGAGA	-0.138 ± 0.06
CATCATCG	-0.0371 ± 0.063
CCACCTAG	0.264 ± 0.0049
CCCACGAA	0.0862 ± 0.068
CTTAGGAC	-0.267 ± 0.0085
AGTGTTTG	0.275 ± 0.036
TACTAGCA	0.115 ± 0.062
TCCAGTAA	-0.182 ± 0.035
CGGCTGAC	-0.176 ± 0.06
CTTCTCGC	0.229 ± 0.027
AGCTACAC	0.0294 ± 0.011
AGCGAACG	0.0481 ± 0.02
ACGAATCG	0.201 ± 0.029
CGGTTGCA	0.145 ± 0.037
CGGAGCCG	-0.145 ± 0.068
GATACAGA	-0.189 ± 0.0045
ATCATGAG	-0.136 ± 0.011
GATACCTA	-0.113 ± 0.03
ATTTCGCC	-0.0762 ± 0.14

Sequence	PBM E-score of 8-mer
CGTTTCTA	-0.084 ± 0.0067
CATGCCAG	-0.112 ± 0.042
GAAGGTGC	0.439 ± 0.012
GTTCTCTA	-0.0568 ± 0.065
CGCTTAGA	-0.123 ± 0.017
GATATCTA	-0.117 ± 0.025
CATCGCCA	0.0857 ± 0.026
AAACCCTT	-0.334 ± 0.019
CCAAGATA	-0.101 ± 0.0067
AACTGGCC	-0.00308 ± 0.086
ACGATGTC	-0.0933 ± 0.018
AGCGTTAT	0.105 ± 0.049
ACATTTAG	0.0367 ± 0.035
TCGATCGA	-0.00381 ± 0.11
GATAGGTA	0.085 ± 0.09
GCTCGCGA	0.225 ± 0.011
AATCCTGG	-0.138 ± 0.028
CGCCGTGC	0.0684 ± 0.03
CCGTGAGG	0.044 ± 0.027
CGATACTC	-0.00241 ± 0.045
CCCAGGCA	-0.204 ± 0.18
AACGGCCG	-0.0128 ± 0.013
AGACGTAC	-0.0326 ± 0.046
AACCTCTC	-0.0958 ± 0.093
TGTTAGAA	0.183 ± 0.018

Sequence	PBM E-score of 8-mer
ACACCTAT	0.4662 ± 0.00073
GGCTGGGA	-0.202 ± 0.1
GCCTCTCA	0.0474 ± 0.026
CATCCCGA	0.0359 ± 0.022
GTATAAAA	-0.166 ± 0.085
GTAACTTA	-0.0791 ± 0.07
GGTTTCAC	0.308 ± 0.019
TCGTTAGA	-0.0141 ± 0.027
AGTTCTAT	-0.232 ± 0.054
ATGCGGAG	-0.142 ± 0.059
ACAACATG	0.179 ± 0.0072
ACGAGTGA	0.069 ± 0.067
CTGTTGGC	0.165 ± 0.047
GGCGCGAA	0.4607 ± 0.0017
GTGAACAC	0.35 ± 0.021
ATATATTA	-0.227 ± 0.014
AGTGACCA	0.0489 ± 0.11
TCTTAGCA	0.2 ± 0.017
AGTAAGTG	0.239 ± 0.0039
TCCGAACA	0.0231 ± 0.017
AAAGGGGA	-0.0566 ± 0.097
ACACTGTG	0.227 ± 0.0059
ACACGCAC	0.147 ± 0.046
CGCGCGAC	0.291 ± 0.025
CAGAAGGG	0.0138 ± 0.051

Sequence	PBM E-score of 8-mer
GACACACA	0.257 ± 0.02
ATCCGCCC	-0.284 ± 0.025
ACGCCACG	-0.0313 ± 0.0036
CCGCCAGA	-0.0349 ± 0.073
CAGCAGCC	-0.138 ± 0.057
CACGCAAC	0.024 ± 0.02
AACACCTA	0.4803 ± 0.0034
ACGGTCAC	0.0787 ± 0.063
CCCATGCC	-0.163 ± 0.034
GCTACCCC	-0.124 ± 0.043
CGTACCAC	-0.117 ± 0.024
GATAAGCC	0.022 ± 0.096
CCGCTCCA	-0.0572 ± 0.052
ACCCACCG	-0.118 ± 0.046
GTAATCAC	0.201 ± 0.035
AGCGCACA	0.0274 ± 0.021
CGTAGTTA	-0.189 ± 0.055
ATCGGGAA	-0.272 ± 0.011
CACGCGTG	0.226 ± 0.027
CCGATCAG	0.022 ± 0.046
TACCCAGA	-0.174 ± 0.05
ACGTTAAT	0.0757 ± 0.015
